# Laboratory results from the supplement of paper PMC8728848.
# The list shows a part of the results.
# B1: CVN-E41G (protein)
# chain: MHHHHHHENLYFQSGNFSQACYNSAIQGSVLTSTCIRTNGGYNTSSIDLNSVIANVDGSLKWQGSNFIETCRNTQLAGSSELAAECKTRAQQFVSTKINLDDHIAAIDGTLKYE
# Assays:
# Assay in all cases: glycan array binding signal (z-score within array); higher = stronger binding
# Settings in all cases: glycan notation: IUPAC condensed, linker removed; mutation: E41A
# [1] = biological target: Gal(b1-4)GlcNAc(b1-3)Gal(b1-4)GlcNAc(b1-3)[Gal(b1-4)GlcNAc(b1-3)Gal(b1-4)GlcNAc(b1-6)]GalNAc
# Method in brief: (§1)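 Arrays were curated from the Consortium for Functional Glycomics database, 3228 in total, and kept only where the protein sequence was available. Binding is expressed as a within-array Z-score. This score was averaged across arrays of the same protein sequence at different concentrations or buffers and across linkers, and negative values can be read as non-binding.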
# [2] = biological target: Gal(b1-4)GlcNAc(b1-3)Gal(b1-4)GlcNAc(b1-6)[Gal(b1-3)]GalNAc
# Method in brief: as §1
# [3] = biological target: Gal(b1-4)GlcNAc(b1-3)Gal(b1-4)[Fuc(a1-3)]GlcNAc(b1-3)Gal(b1-4)[Fuc(a1-3)]GlcNAc
# Method in brief: as §1
# [4] = biological target: Gal(b1-4)GlcNAc(b1-3)GalNAc
# Method in brief: as §1
# [5] = biological target: Gal(b1-4)GlcNAc(b1-3)[Fuc(a1-3)GlcNAc(b1-6)]Gal(b1-4)Glc
# Method in brief: as §1
# [6] = biological target: Gal(b1-4)GlcNAc(b1-3)[Gal(b1-4)GlcNAc(b1-6)]Gal(b1-4)GlcNAc
# Method in brief: as §1
# [7] = biological target: Gal(b1-4)GlcNAc(b1-3)[GlcNAc(b1-6)]Gal(b1-4)GlcNAc
# Method in brief: as §1
# [8] = biological target: Gal(b1-4)GlcNAc(b1-6)Gal(b1-4)GlcNAc
# Method in brief: as §1
# [9] = biological target: Gal(b1-4)GlcNAc(b1-6)GalNAc
# Method in brief: as §1
# [10] = biological target: Gal(b1-4)GlcNAc(b1-6)[Gal(b1-3)]GalNAc
# Method in brief: as §1
# [11] = biological target: Gal(b1-4)GlcNAc(b1-6)[Gal(b1-4)GlcNAc(b1-3)]GalNAc
# Method in brief: as §1
# Gal(b1-4)GlcNAc6P = biological target: Gal(b1-4)GlcNAc6P
# Method in brief: as §1
# Gal(b1-6)Gal = biological target: Gal(b1-6)Gal
# Method in brief: as §1
# Gal3S(b1-3)GalNAc = biological target: Gal3S(b1-3)GalNAc
# Method in brief: as §1
# Gal3S(b1-3)GlcNAc = biological target: Gal3S(b1-3)GlcNAc
# Method in brief: as §1
# [12] = biological target: Gal3S(b1-3)[Fuc(a1-4)]GlcNAc
# Method in brief: as §1
# Gal3S(b1-4)Glc = biological target: Gal3S(b1-4)Glc
# Method in brief: as §1
# Gal3S(b1-4)Glc6S = biological target: Gal3S(b1-4)Glc6S
# Method in brief: as §1
# Gal3S(b1-4)GlcNAc = biological target: Gal3S(b1-4)GlcNAc
# Method in brief: as §1
# [13] = biological target: Gal3S(b1-4)[Fuc(a1-3)]Glc6S
# Method in brief: as §1
# [14] = biological target: Gal3S(b1-4)[Fuc(a1-3)]GlcNAc
# Method in brief: as §1
# [15] = biological target: Gal3S(b1-4)[Fuc(a1-3)]GlcNAc6S
# Method in brief: as §1
# Gal3S4S(b1-4)GlcNAc = biological target: Gal3S4S(b1-4)GlcNAc
# Method in brief: as §1
# Gal3S6S(b1-4)GlcNAc = biological target: Gal3S6S(b1-4)GlcNAc
# Method in brief: as §1
# Gal3S6S(b1-4)GlcNAc6S = biological target: Gal3S6S(b1-4)GlcNAc6S
# Method in brief: as §1
# Gal4S(b1-4)GlcNAc = biological target: Gal4S(b1-4)GlcNAc
# Method in brief: as §1
# Gal4S6S(b1-4)GlcNAc = biological target: Gal4S6S(b1-4)GlcNAc
# Method in brief: as §1
# Gal6P(b1-4)GlcNAc = biological target: Gal6P(b1-4)GlcNAc
# Method in brief: as §1
# Gal6S(b1-3)GlcNAc = biological target: Gal6S(b1-3)GlcNAc
# Method in brief: as §1
# Gal6S(b1-3)GlcNAc6S = biological target: Gal6S(b1-3)GlcNAc6S
# Method in brief: as §1
# Gal6S(b1-4)Glc = biological target: Gal6S(b1-4)Glc
# Method in brief: as §1
# Gal6S(b1-4)Glc6S = biological target: Gal6S(b1-4)Glc6S
# Method in brief: as §1
# Gal6S(b1-4)GlcNAc = biological target: Gal6S(b1-4)GlcNAc
# Method in brief: as §1
# Gal6S(b1-4)GlcNAc6S = biological target: Gal6S(b1-4)GlcNAc6S
# Method in brief: as §1
# GalNAc(a1-3)Gal = biological target: GalNAc(a1-3)Gal
# Method in brief: as §1
# GalNAc(a1-3)GalNAc = biological target: GalNAc(a1-3)GalNAc
# Method in brief: as §1
# [16] = biological target: GalNAc(a1-3)GalNAc(b1-3)Gal(a1-4)Gal(b1-4)Glc
# Method in brief: as §1
# [17] = biological target: GalNAc(a1-3)GalNAc(b1-3)Gal(a1-4)Gal(b1-4)GlcNAc
# Method in brief: as §1
# GalNAc(b1-3)Gal = biological target: GalNAc(b1-3)Gal
# Method in brief: as §1
# [18] = biological target: GalNAc(b1-3)Gal(a1-4)Gal(b1-4)GlcNAc
# Method in brief: as §1
# [19] = biological target: GalNAc(b1-3)Gal(a1-4)Gal(b1-4)GlcNAc(b1-3)Gal(b1-4)Glc
# Method in brief: as §1
# [20] = biological target: GalNAc(b1-3)Gal(a1-6)Gal(b1-4)Glc
# Method in brief: as §1
# GalNAc(b1-3)GalNAc = biological target: GalNAc(b1-3)GalNAc
# Method in brief: as §1
# GalNAc(b1-3)GlcNAc = biological target: GalNAc(b1-3)GlcNAc
# Method in brief: as §1
# GalNAc(b1-4)Gal(b1-4)Glc = biological target: GalNAc(b1-4)Gal(b1-4)Glc
# Method in brief: as §1
binder,measurement,setting,value
B1,glycan array binding signal (z-score),[1],0.156
same,glycan array binding signal (z-score),[2],-0.166
same,glycan array binding signal (z-score),[3],0.012
same,glycan array binding signal (z-score),[4],-0.226
same,glycan array binding signal (z-score),[5],0.2
same,glycan array binding signal (z-score),[6],-0.191
same,glycan array binding signal (z-score),[7],-0.197
same,glycan array binding signal (z-score),[8],-0.239
same,glycan array binding signal (z-score),[9],-0.193
same,glycan array binding signal (z-score),[10],-0.199
same,glycan array binding signal (z-score),[11],-0.215
same,glycan array binding signal (z-score),Gal(b1-4)GlcNAc6P,-0.215
same,glycan array binding signal (z-score),Gal(b1-6)Gal,-0.181
same,glycan array binding signal (z-score),Gal3S(b1-3)GalNAc,-0.125
same,glycan array binding signal (z-score),Gal3S(b1-3)GlcNAc,-0.23
same,glycan array binding signal (z-score),[12],-0.194
same,glycan array binding signal (z-score),Gal3S(b1-4)Glc,-0.201
same,glycan array binding signal (z-score),Gal3S(b1-4)Glc6S,-0.219
same,glycan array binding signal (z-score),Gal3S(b1-4)GlcNAc,-0.218
same,glycan array binding signal (z-score),[13],-0.037
same,glycan array binding signal (z-score),[14],-0.199
same,glycan array binding signal (z-score),[15],-0.109
same,glycan array binding signal (z-score),Gal3S4S(b1-4)GlcNAc,-0.204
same,glycan array binding signal (z-score),Gal3S6S(b1-4)GlcNAc,0.005
same,glycan array binding signal (z-score),Gal3S6S(b1-4)GlcNAc6S,-0.212
same,glycan array binding signal (z-score),Gal4S(b1-4)GlcNAc,-0.223
same,glycan array binding signal (z-score),Gal4S6S(b1-4)GlcNAc,-0.249
same,glycan array binding signal (z-score),Gal6P(b1-4)GlcNAc,-0.099
same,glycan array binding signal (z-score),Gal6S(b1-3)GlcNAc,-0.221
same,glycan array binding signal (z-score),Gal6S(b1-3)GlcNAc6S,-0.217
same,glycan array binding signal (z-score),Gal6S(b1-4)Glc,-0.227
same,glycan array binding signal (z-score),Gal6S(b1-4)Glc6S,-0.198
same,glycan array binding signal (z-score),Gal6S(b1-4)GlcNAc,-0.203
same,glycan array binding signal (z-score),Gal6S(b1-4)GlcNAc6S,-0.21
same,glycan array binding signal (z-score),GalNAc(a1-3)Gal,-0.219
same,glycan array binding signal (z-score),GalNAc(a1-3)GalNAc,-0.252
same,glycan array binding signal (z-score),[16],-0.23
same,glycan array binding signal (z-score),[17],-0.21
same,glycan array binding signal (z-score),GalNAc(b1-3)Gal,-0.199
same,glycan array binding signal (z-score),[18],-0.091
same,glycan array binding signal (z-score),[19],-0.21
same,glycan array binding signal (z-score),[20],-0.225
same,glycan array binding signal (z-score),GalNAc(b1-3)GalNAc,-0.228
same,glycan array binding signal (z-score),GalNAc(b1-3)GlcNAc,-0.209
same,glycan array binding signal (z-score),GalNAc(b1-4)Gal(b1-4)Glc,-0.154
